Experimental data published in publication PMC4336329 (PLoS ONE, 2015).
Out of some 310,000 compounds screened, about 14,000 (4.5%) showed an effect of 50% or more. Effects have a minus sign here. This is one part of the list.
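Also: peak tail current of the secondary pulse compared with the same well before compound.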

These compounds were tested against human ether-à-go-go-related gene (hERG) potassium channel (human, UniProt Q12809) (assay: primary screen, population patch clamp on CHO cells stably expressing hERG).
Chain of human ether-à-go-go-related gene (hERG) potassium channel (Q12809 whole entry, looked up): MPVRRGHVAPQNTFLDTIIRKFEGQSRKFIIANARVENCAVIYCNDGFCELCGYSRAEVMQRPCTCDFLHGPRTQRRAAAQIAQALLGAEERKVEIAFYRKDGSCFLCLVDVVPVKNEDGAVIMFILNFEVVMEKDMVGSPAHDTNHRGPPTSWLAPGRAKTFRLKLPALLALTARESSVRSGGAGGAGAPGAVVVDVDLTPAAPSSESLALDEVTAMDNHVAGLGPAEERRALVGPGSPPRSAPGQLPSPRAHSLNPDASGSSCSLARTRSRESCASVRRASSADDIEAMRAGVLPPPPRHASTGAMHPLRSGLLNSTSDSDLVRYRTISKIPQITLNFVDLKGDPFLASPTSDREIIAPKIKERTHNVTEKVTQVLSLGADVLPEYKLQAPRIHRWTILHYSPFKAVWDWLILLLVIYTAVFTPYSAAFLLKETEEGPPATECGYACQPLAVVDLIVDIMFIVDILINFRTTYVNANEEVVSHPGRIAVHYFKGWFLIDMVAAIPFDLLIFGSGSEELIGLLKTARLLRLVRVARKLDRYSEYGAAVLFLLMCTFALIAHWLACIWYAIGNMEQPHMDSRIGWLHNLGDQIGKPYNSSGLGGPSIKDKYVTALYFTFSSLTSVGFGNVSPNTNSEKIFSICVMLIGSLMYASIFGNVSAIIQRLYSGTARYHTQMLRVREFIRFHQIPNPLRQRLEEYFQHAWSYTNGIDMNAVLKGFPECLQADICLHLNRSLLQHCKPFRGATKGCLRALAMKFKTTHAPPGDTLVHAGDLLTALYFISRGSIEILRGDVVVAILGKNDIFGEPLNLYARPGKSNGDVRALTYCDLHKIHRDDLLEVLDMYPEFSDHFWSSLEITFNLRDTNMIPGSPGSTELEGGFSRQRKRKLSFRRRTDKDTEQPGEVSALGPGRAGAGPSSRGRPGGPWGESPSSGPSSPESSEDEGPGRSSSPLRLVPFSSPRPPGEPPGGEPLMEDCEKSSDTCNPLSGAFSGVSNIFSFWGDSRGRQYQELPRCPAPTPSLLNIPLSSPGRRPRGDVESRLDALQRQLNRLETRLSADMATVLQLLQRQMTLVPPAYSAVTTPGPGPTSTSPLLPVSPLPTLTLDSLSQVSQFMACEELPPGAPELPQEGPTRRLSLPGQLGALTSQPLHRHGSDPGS
For `Cc1cc(C)cc(NC(=O)c2ccc(CSc3nnc(C)s3)cc2)c1`, the “hERG current change (%, negative = inhibition) at 10uM” value was 6.51%.
In the case of `Cc1cc(C)cc(NC(=O)N2CCc3ccccc3C2)c1`, the “hERG current change (%, negative = inhibition) at 10uM” value is reported as 11.7%.
`CN(Cc1nccn1C)C(=O)c1ccc(OC2CCN(CCc3ccccc3)CC2)cc1` was tested, and the “hERG current change (%, negative = inhibition) at 10uM” value was -38.3%.
`Cc1cc(NCc2ccccn2)n2ncc(-c3ccccc3)c2n1` was tested, and the “hERG current change (%, negative = inhibition) at 10uM” value was -8.46%.
`Cc1cccc(NS(=O)(=O)c2cccc([N+](=O)[O-])c2)n1` was tested, and the “hERG current change (%, negative = inhibition) at 10uM” value was 4.28%.
For `NC1C2CN3CCN(C2)CC1(c1ccccc1)C3` (stereo not shown), the “hERG current change (%, negative = inhibition) at 10uM” value was 30.9%.
With `O=C(c1ccccc1)N1CCc2[nH]nc(-c3ccccc3)c2C1` the “hERG current change (%, negative = inhibition) at 10uM” value was -4.26%.
For `CC(=O)Nc1ccc(C(=O)COC(=O)c2cccs2)c(F)c1`, the “hERG current change (%, negative = inhibition) at 10uM” value was 7.71%.
For `CCn1ncc(CN2CCCC(C(=O)Nc3cccc(-c4cc5ccccc5[nH]4)c3)C2)c1C` (stereo not shown), the “hERG current change (%, negative = inhibition) at 10uM” value was -56.7%.
With `O=c1c(CN2CCN(c3ccccn3)CC2)coc2ccccc12` the “hERG current change (%, negative = inhibition) at 10uM” value was -17.8%.
`O=C(Cc1c[nH]c2ccccc12)Nc1ccc(N2CCOCC2)cc1` was tested, and the “hERG current change (%, negative = inhibition) at 10uM” value was 2.86%.
For `Cn1c(CC(=O)NN)c(Sc2ccccc2)c2ccccc21`, the “hERG current change (%, negative = inhibition) at 10uM” value was 4.62%.
For `Cc1ccc(Nc2nc(=O)[nH]nc2C)cc1`, the “hERG current change (%, negative = inhibition) at 10uM” value was -9.45%.
In the case of `COc1ccc(C(=S)N2CCCC2)cc1OC`, the “hERG current change (%, negative = inhibition) at 10uM” value is reported as 2.36%.
`Cc1cccc(COc2ccc(/C=N/NC(=O)c3nnn(-c4nonc4N)c3C)cc2)c1` was tested, and the “hERG current change (%, negative = inhibition) at 10uM” value was 15.3%.
For `CCN(CC)CCCNC(=O)C1c2ccccc2C(=O)N1Cc1ccc(C)cc1` (stereo not shown), the “hERG current change (%, negative = inhibition) at 10uM” value was -20.5%.
In the case of `CN(C)CCNc1nc2c(c(=O)[nH]c(=O)n2C)n1CC(O)COc1ccc(Cl)cc1Cl` (stereo not shown), the “hERG current change (%, negative = inhibition) at 10uM” value is reported as -55%.
In the case of `O=S(=O)(Nc1ccc2c(c1)OCO2)c1ccccc1`, the “hERG current change (%, negative = inhibition) at 10uM” value is reported as -36.1%.
`Cc1cccc(C)c1NC(=O)COC(=O)c1cc(-c2cccnc2)nc2ccccc12` was tested, and the “hERG current change (%, negative = inhibition) at 10uM” value was -1.68%.
For `O=C(CSc1ccc(-c2ccco2)nn1)NCCc1ccccc1`, the “hERG current change (%, negative = inhibition) at 10uM” value was -12.4%.
In the case of `N#CCCN(Cc1cccs1)C(=O)c1ccc(Cl)cc1`, the “hERG current change (%, negative = inhibition) at 10uM” value is reported as -6.3%.
`Cc1c(C(=O)Nc2c(F)cccc2F)sc2ncnc(N3CCN(c4ccccc4)CC3)c12` was tested, and the “hERG current change (%, negative = inhibition) at 10uM” value was -12.2%.
With `CCC(=O)Nc1ccc(C(=O)COC(=O)Cc2ccsc2)cc1` the “hERG current change (%, negative = inhibition) at 10uM” value was -6.06%.
`Cc1cc(C)cc(NC(=O)C2CCCN2S(=O)(=O)c2ccc3c(c2)C(C)(C)C(=O)N3C)c1` (stereo not shown) was tested, and the “hERG current change (%, negative = inhibition) at 10uM” value was -38.7%.
In the case of `Cc1ccc(S(=O)(=O)N2CCN(c3ccc(S(=O)(=O)N4CCOCC4)cn3)CC2)cc1`, the “hERG current change (%, negative = inhibition) at 10uM” value is reported as 12.2%.
In the case of `O=C(CC(=O)NCc1ccc(Cl)cc1)NCc1ccc(Cl)cc1`, the “hERG current change (%, negative = inhibition) at 10uM” value is reported as 4.44%.
In the case of `CCN(C(=O)CSc1nnc(-c2ccccc2)n1C)C1CCS(=O)(=O)C1` (stereo not shown), the “hERG current change (%, negative = inhibition) at 10uM” value is reported as 0.82%.
In the case of `Cc1noc(C)c1C(=O)OCC(=O)c1c(N)n(CC(C)C)c(=O)n(C)c1=O`, the “hERG current change (%, negative = inhibition) at 10uM” value is reported as -24.5%.
For `CN1CCN(c2ccc(CNC(=O)c3ccco3)cc2)CC1`, the “hERG current change (%, negative = inhibition) at 10uM” value was 10.7%.
`COc1ccc(S(=O)(=O)NCCN2CCOCC2)c2ccccc12` was tested, and the “hERG current change (%, negative = inhibition) at 10uM” value was 2.52%.
For `COc1ccc(C2(C)NC(=O)N(CC(=O)Nc3ccc(Br)c(C)c3)C2=O)cc1OC` (stereo not shown), the “hERG current change (%, negative = inhibition) at 10uM” value was 2.17%.
In the case of `CCOC(=O)C1(CCOC)CCN(Cc2cc3ccccc3s2)CC1`, the “hERG current change (%, negative = inhibition) at 10uM” value is reported as -22.5%.
In the case of `O=C(Nc1cccnc1)Nc1ccc(Cl)cc1Cl`, the “hERG current change (%, negative = inhibition) at 10uM” value is reported as 15%.
In the case of `CCOC(=O)C1(CCOC)CCN(Cc2ccc3nonc3c2)CC1`, the “hERG current change (%, negative = inhibition) at 10uM” value is reported as -10.5%.
With `Cc1ccc2[nH]c3nc(NN)nnc3c2c1` the “hERG current change (%, negative = inhibition) at 10uM” value was 14.5%.
With `S=c1[nH]nc2n1CCCN2` the “hERG current change (%, negative = inhibition) at 10uM” value was 12.7%.
For `Cc1ccc(C(=O)Nc2cccc(C(=O)NCc3ccco3)c2)cc1`, the “hERG current change (%, negative = inhibition) at 10uM” value was -10.6%.
For `O=C(NNC(=O)c1cnccc1C(F)(F)F)c1ccc(Cl)cc1`, the “hERG current change (%, negative = inhibition) at 10uM” value was 11.1%.
`CCCCc1nc(SCC(=O)Nc2nnc(CCCC)s2)n[nH]1` was tested, and the “hERG current change (%, negative = inhibition) at 10uM” value was -18%.
`Cc1ccc(C(=O)N/C(=C\c2cccs2)C(=O)NCc2cccnc2)cc1` was tested, and the “hERG current change (%, negative = inhibition) at 10uM” value was -58%.
For `CC(=O)c1ccc(OCCCC(=O)N(CCC2=CCCCC2)c2c(N)n(Cc3ccccc3)c(=O)[nH]c2=O)cc1`, the “hERG current change (%, negative = inhibition) at 10uM” value was -21.6%.
In the case of `CC(O)CNCCCOc1cccc(Oc2ccccc2)c1.O=C(O)C(=O)O` (stereo not shown), the “hERG current change (%, negative = inhibition) at 10uM” value is reported as -10.9%.
`N#C/C(=C(/O)COC(=O)CCc1ccc(S(=O)(=O)N2CCOCC2)cc1)c1nc2ccccc2[nH]1` was tested, and the “hERG current change (%, negative = inhibition) at 10uM” value was 3.02%.
With `CCOC(=O)N1CCN(C(=O)Cc2ccc(C)cc2)CC1` the “hERG current change (%, negative = inhibition) at 10uM” value was 10.8%.
For `COC(=O)c1nc(N)sc1-c1ccc(OC)cc1`, the “hERG current change (%, negative = inhibition) at 10uM” value was 10.3%.
In the case of `O=C(CSc1ccc(Cl)cc1)Nc1ccc(C2SCCS2)cc1`, the “hERG current change (%, negative = inhibition) at 10uM” value is reported as 3.84%.
With `Cc1cc(NC(=O)c2nn3cccnc3c2Cl)no1` the “hERG current change (%, negative = inhibition) at 10uM” value was 6.12%.
In the case of `O=C(NCC(=O)N1CCN(c2ccccc2)CC1)c1ccco1`, the “hERG current change (%, negative = inhibition) at 10uM” value is reported as 3.36%.
With `CCOc1ccc(NC(=O)CN(C)C(=O)Cc2c[nH]c3ccccc23)cc1OCC` the “hERG current change (%, negative = inhibition) at 10uM” value was -22.8%.
With `O=C(/C=C/c1cccc(Oc2ccccc2)c1)N1CCOCC1` the “hERG current change (%, negative = inhibition) at 10uM” value was -4.94%.
In the case of `Cc1nc2ccc(S(=O)(=O)NCC(=O)NCCN3CCCCC3C)cc2s1` (stereo not shown), the “hERG current change (%, negative = inhibition) at 10uM” value is reported as 11%.
`CCNCc1nc2cc(Cl)ccc2c(=O)[nH]1.Cl` was tested, and the “hERG current change (%, negative = inhibition) at 10uM” value was 4.64%.
`O=C(NCc1ccco1)c1cc2nc(C3CC3)cc(C(F)(F)F)n2n1` was tested, and the “hERG current change (%, negative = inhibition) at 10uM” value was -8.47%.
`CCOc1ccc(N(CC(=O)NCCc2ccc(F)cc2)S(=O)(=O)c2ccccc2)cc1` was tested, and the “hERG current change (%, negative = inhibition) at 10uM” value was 6.25%.
In the case of `CC(C)c1ccc(C(CC(=O)c2ccc(Cl)cc2)C(=O)O)cc1` (stereo not shown), the “hERG current change (%, negative = inhibition) at 10uM” value is reported as -5.49%.
With `CCOC(=O)c1nnn(CC(=O)NC(=O)Nc2cccc(CC)c2)c1C(=O)OCC` the “hERG current change (%, negative = inhibition) at 10uM” value was 3.55%.
For `Cn1c(-c2ccc(F)cc2)cnc1SCC(=O)N1CCCc2ccccc21`, the “hERG current change (%, negative = inhibition) at 10uM” value was -24.8%.
In the case of `COc1cc(C(=O)N(C)Cc2cccc(OC)c2OC)ccc1OCC(=O)Nc1cccc(C(F)(F)F)c1`, the “hERG current change (%, negative = inhibition) at 10uM” value is reported as -17%.
